Results taken from PubChem BioAssay AID2546 (National Center for Advancing Translational Sciences (NCATS), 2010).
About 11,000 (3.5%) of roughly 310,000 compounds were called active. Inconclusive means that the source gave no clear call. Such entries were picked first, then a sample of the others. Calls follow the shape of the dose curve; as a rule, active = well fitted inhibition curve with a large enough effect; inconclusive = small, poorly fitted or top-dose-only effect, or effect the other way; inactive = flat fitted curve, though single readings scatter. No potency is given beside an inconclusive call; the fits are too rough.

Test: VP16 counterscreen qHTS for inhibitors of ROR gamma transcriptional activity;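 also: Gal4-VP16 expression switched on by copper sulfate through the metallothionein promoter; nearly all actives have a fitted effect of over 50% in size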
Conditions: Drosophila S2 Gal4-VP16 UAS-luciferase, luminescence, 20 h; series mostly up to 53.6 µM
Potency is read from the fitted curve at half-maximal effect; tags tell the direction and shape of the fitted curve.

Structure (SMILES)	Potency
Cc1ccc2nc(-c3ccc(NS(=O)(=O)c4ccccc4)cc3)sc2c1	inconclusive [inhibitor, single point]
COc1ccc(/C=C2\SC(=S)N(CCC(=O)N(CCO)Cc3ccccc3)C2=O)cc1OC	inconclusive [inhibitor, single point]
COc1cccc2c1C(=O)c1c(O)c3c(c(O)c1C2=O)C[C@](O)(C(=O)CO)C[C@H]3O[C@@H]1C[C@H](N)[C@H](O)[C@H](C)O1	active: 7.08 µM
CC(=O)c1sc(Nc2ccccn2)nc1C	inconclusive [activator, single point]
CCOCCCNC(=S)NCCCNc1nc2c(C)c(C)ccc2cc1C#N	inconclusive [inhibitor, single point]
O=C(Nc1ccc(NC(=O)c2sc3ccccc3c2Cl)cc1Cl)c1ccco1	inconclusive [inhibitor, single point]
Cc1ccc(NC(=O)O/N=C/c2ccc(N(C)C)cc2)cc1	inactive
COc1ccc(/C=N/NC(=O)c2ccncc2)cc1CSc1nc2ccccc2s1	active: 6.31 µM
COc1ccccc1NC(=O)CCSc1nnc(-c2ccc(O)cc2)o1	inconclusive [inhibitor, single point]
CC(=O)c1cccc(N(C(=O)CNC(=O)c2cccs2)C(C(=O)NCC2CCCO2)c2ccccc2)c1 (stereo unspecified)	inactive
O=C(O)c1ccc(-n2nnnc2SCc2ccccc2Br)cc1	inactive
CCOc1cc(/C=N/n2cnnc2)c(Br)cc1O	active: 5.62 µM
CCCCCCCCNc1ncnc2ccccc12	active: 0.355 µM
COc1cccc(/C=C2/SC(=S)N(CCC(=O)N3CCOCC3)C2=O)c1	inconclusive [activator, partial curve]
O=C(C[n+]1ccccc1)Nc1ccccc1Br	active: 2.82 µM
O=C(CCC1CCCN(C(=O)COc2ccccc2)C1)N1CCN(c2ccccn2)CC1 (stereo unspecified)	inactive
N/C(=N\OC(=O)c1ccc2c(c1)OCO2)c1ccc(Br)cc1	inconclusive [inhibitor, single point]
CCc1nc(SCC(=O)Nc2ccc(Br)cn2)n[nH]1	inactive
COc1ccc2[nH]c3c(N4CCc5ccccc5C4)ncnc3c2c1	active: 12.6 µM
COc1ccc(N=C(C)c2sc3ccccc3c2O)cc1	inconclusive [inhibitor, single point]
C[C@@H]1OC(OC2CC[C@@]3(C)C(CC[C@@]4(C)C3CC=C3C5CC(C)(C)CC[C@]5(C(=O)OC5OCC(O)[C@@H](O)[C@@H]5OC5O[C@@H](C)[C@H](O[C@H]6OC(CO)C(O)C(O)C6O)C(O)C5O)C(O)C[C@@]34C)C2(C)C)C(O)C(O)[C@H]1OC1OCC(O)C(O)[C@H]1O (stereo partly specified)	inconclusive [inhibitor, single point]
CN(C(=O)c1cc2n(n1)C(C(F)(F)F)CC(c1ccco1)N2)c1ccc(OC(F)(F)F)cc1 (stereo unspecified)	active: 17.8 µM
O=C(Nc1cccc(S(=O)(=O)Nc2ccc(Cl)cc2)c1)c1cc2c(s1)CCCC2	inconclusive [inhibitor, single point]
COCC(=O)Nc1ccc2c(c1)OCO2	inconclusive [inhibitor, single point]

Structure (SMILES)	Potency
O=c1[nH]c(SCc2ccc([N+](=O)[O-])cc2)nc2[nH]ncc12	inactive
CCOC(=O)c1cnc(-n2nc(C)cc2C)nc1NNc1ncc(-c2ccccc2)cn1	inconclusive [inhibitor, full curve]
CCCCc1ccc(NC(=S)NCCN2CCOCC2)cc1	inconclusive [inhibitor, single point]
COc1ccc(Cc2noc(CN3CCN(C4CCc5ccccc5C4)CC3)n2)cc1OC (stereo unspecified)	inactive
Cc1ccsc1/C=N/NC(=O)c1cccnc1	active: 12.6 µM
O=C(NCc1ccc(C(=O)O)cc1)OCc1ccccc1	inconclusive [inhibitor, single point]
CCSc1nc(C2CC2)cc(-c2cccs2)c1C#N	inactive
COC(=O)c1sc(NC(=O)COc2ccc(C)cc2)nc1C	inconclusive [inhibitor, single point]
Cc1ccc(OCCN2CCN(c3ncnc4sc(C)c(C)c34)CC2)cc1	active: 3.55 µM
O=C1NN(c2ccccc2)C(=O)/C1=C\c1cccn1-c1ccc(Cl)c([N+](=O)[O-])c1	inactive
CC(Oc1ccccc1)C(=O)Nc1nnc(C2CCCCC2)s1 (stereo unspecified)	inconclusive [activator, single point]
N/C(=N\N=C/c1ccc(F)cc1)N/N=C\c1ccc(F)cc1	inactive
Cc1ccccc1N=C1Nc2ccccc2CS1	inconclusive [inhibitor, single point]
COC(=O)c1ccc(/C=N/N2CCN(Cc3ccccc3Cl)CC2)cc1	inconclusive [activator, partial curve]
CCS(=O)(=O)c1ncc(Cl)c(C(=O)Nc2ccc(S(=O)(=O)N3CCCC(C)C3)cc2)n1 (stereo unspecified)	active: 3.55 µM
O=C(CNc1cccc2ccccc12)N/N=C/c1ccc[nH]1	active: 14.1 µM
Cc1cc(-c2csc(Nc3ccccn3)n2)ccc1F	inconclusive [inhibitor, single point]
O=C(N/N=C1\CCCc2ccccc21)c1ccc([N+](=O)[O-])cc1	inconclusive [inhibitor, single point]
COc1ccccc1N1C(N)=NC(N)=NC1(C)C	inactive
O=C(N/N=C/c1cc(Cl)ccc1O)c1ccncc1	inconclusive [inhibitor, single point]
CCCCCCCC/C=C\CCCCCCCC(=O)N[C@H](CO)Cc1ccc(O)cc1	inconclusive [inhibitor, single point]
CC(=O)Nc1cc(C(=O)OCC(=O)c2ccc(C)cc2)ccc1C	inconclusive [activator, partial curve]
CC(C)n1cc(/C=N\NC(=O)c2cc3c(ccc4ccccc43)o2)c2ccccc21	inactive
CCOc1ccccc1/C=C/c1onc(C)c1S(=O)(=O)N1CCC(C(=O)NC(C)C)CC1	inactive

Structure (SMILES)	Potency
O=C(O)c1ccccc1SCC(=O)N1CCc2ccccc21	inconclusive [activator, single point]
O=C(CCc1nnc(CCCc2ccccc2)o1)N1CCCCCC1	inconclusive [activator, full curve, poor fit]
CC(C)N(Cc1nccn1C)C(=O)c1cc(COc2ccc3ncccc3c2)on1	inconclusive [inhibitor, partial curve]
Cc1cccc(NC(=O)CSc2cc(C)c(C#N)c3nc4ccccc4n23)c1	inconclusive [inhibitor, full curve, poor fit]
O=c1c2cc(Br)ccc2[nH]c(=S)n1Cc1ccccn1	inconclusive [inhibitor, single point]
S=C(NCCN1CCOCC1)Nc1ccc(-c2nc3ccccc3[nH]2)cc1	inactive
O=C1C(C=NCCN2CCOCC2)=C(O)c2ccccc21	inactive
O=C(NC(=S)N1CCN(c2ccccn2)CC1)c1ccco1	active: 3.16 µM
Cc1ccccc1CC1(CO)CCCN(C(=O)c2cccc(Cl)c2)C1 (stereo unspecified)	inactive
O=C(O)c1cccc(CSc2nnc(COc3ccccc3)o2)c1	inconclusive [inhibitor, full curve]
Cc1nnc(NC(=O)c2ccc(S(=O)(=O)N3CCCCC3C)cc2)o1 (stereo unspecified)	active: 1.12 µM
CCN(CC)S(=O)(=O)c1ccc(N2CCN(C)CC2)c(NC(=O)Nc2ccc(C)cc2)c1	inconclusive [inhibitor, single point]
CC1=C(C(=O)OCc2ccccc2)C(c2ccc(-c3ccccc3)cc2)NC(=O)N1CCCCCC(=O)O (stereo unspecified)	inconclusive [inhibitor, single point]
CC(OC(=O)c1ccc2c(c1)C(=O)N(Cc1ccncc1)C2=O)C(=O)Nc1cccc(Cl)c1Cl (stereo unspecified)	inconclusive [inhibitor, single point]
CCOc1ccc(-c2c(C(=O)N/N=C/c3ccc(Cl)cc3)nnn2-c2nonc2N)cc1	inconclusive [inhibitor, single point]
O=C(O)/C=C/C(=O)Nc1ccccc1C(=O)OCC(=O)c1ccc2c(c1)OCCO2	active: 8.91 µM
Cc1ccc(/C=C(\C#N)C(=O)N2CCCC2)c(C)c1	inconclusive [activator, full curve, poor fit]
CCc1nnc(NC(=O)c2ccc(S(=O)(=O)N(CC(C)C)CC(C)C)cc2)o1	active: 0.355 µM
Cc1cc(N)c2ccccc2[n+]1CCCCCCCCCC[n+]1c(C)cc(N)c2ccccc21	inconclusive [inhibitor, partial curve]
Cc1cc(C)nc(N=Nc2c(O)n(Cc3ccc(Cl)cc3)c3ccccc23)n1	active: 3.55 µM
O=C(Nc1ccc(S(=O)(=O)Nc2ccc(F)cc2)cc1)c1ccc(CN2CCOCC2)cc1	inconclusive [inhibitor, single point]
CC(=O)OCC1O[C@@H](O[C@@H]2C[C@H]3C(C)(C)[C@H](OC(C)=O)CC[C@]3(C)[C@H]3CC[C@]45C[C@]4(CC[C@H]5[C@@H](C)C[C@@H](O)[C@H](O)C(C)(C)O)[C@@]32C)[C@H](O)[C@@H](O)[C@@H]1O (stereo partly specified)	active: 3.16 µM
S=C(Nc1ccc2nsnc2c1)N1CCCCCC1	inactive
